The text below walks through data of paper PMC9584953, “Promiscuity of response regulators for thioredoxin steers bacterial virulence” (Nature Communications, 2022).

For assay [1], the target named is T1, OmpR-6His (recombinant, wild type) (Salmonella enterica serovar Typhimurium, UniProt P0AA19 1-239).
T1 construct: response regulator OmpR of Salmonella; pET22b::OmpR; isotope-labelled for NMR; also called unlabeled OmpR; 15N-labeled OmpR; source: E. coli Origami B (DE3), purified (TALON)
T1 sequence: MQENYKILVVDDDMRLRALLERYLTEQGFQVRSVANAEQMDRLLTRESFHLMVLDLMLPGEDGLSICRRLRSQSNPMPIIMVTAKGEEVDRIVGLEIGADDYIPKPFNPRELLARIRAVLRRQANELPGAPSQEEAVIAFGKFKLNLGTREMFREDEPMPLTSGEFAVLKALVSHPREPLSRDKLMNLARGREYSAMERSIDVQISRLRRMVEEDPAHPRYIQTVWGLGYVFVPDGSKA
In words: NMR titration; 15N-HSQC, 300 μM 15N-TrxA with 0-600 μM unlabeled OmpR, 298 K, 20 mM KPO4, 50 mM NaCl, pH 6.5. To be noted: both partners purified.

The target in assay [2] is T2, GST-OmpR (Salmonella enterica serovar Typhimurium, UniProt P0AA19 1-239).
T2 construct: response regulator OmpR of Salmonella; pGEX-6p-1; also called recombinant OmpR protein; source: E. coli BL21 (DE3) or Origami B (DE3) pLysS, purified (Glutathione-Sepharose 4B, Superdex 75)
T2 sequence: T1 sequence
In words: MST; NT647 (RED-Tris-NTA)-labelled TrxA-6His variants, GST-OmpR diluted in series, 50 mM Tris HCl pH 7.5, 75 mM NaCl, Monolith NT.115, 40% MST power. Particulars: both partners purified.

B1: TrxA-6His (recombinant thioredoxin, wild type) (natural protein)
chain: not shown
notes: thioredoxin TrxA of Salmonella, encoded by trxA; pET-22b(+) NdeI/XhoI; isotope-labelled (15N, 13C) for NMR; labelled with NT647 RED-Tris-NTA on the His tag for MST; also called 15N-labeled TrxA; wildtype TrxA; source: E. coli BL21 (DE3), purified (TALON, Superdex 75); not shown: His6, C-terminal, kept
Take B1: the figures for the dissociation constant Kd in assay [1] and in assay [2] were below 10 µM and 6 µM, respectively.

Usually Kd stands for the constant that tells how readily two partners part at equilibrium.
